# Test results reported in the supplement of paper PMC8728848.
# Some of the results follow.
# B1: Mg1lysM (Mycosphaerella graminicola) (protein)
# chain: QRNPITITPQFDCGATNSQQYVARSGDTLTKIAQEIYHDVVGVCDIARANNLADPNRIDAGTPYTIPINCQTYDRNSCL
# How the values were obtained:
# Test in all cases: glycan array binding signal (z-score within array); higher = stronger binding
# Conditions in all cases: glycan notation: IUPAC condensed, linker removed
# [1] = target: Fuc(a1-2)[GalNAc(a1-3)]Gal(b1-3)GlcNAc(b1-3)GalNAc
# Summary of the method: (§1)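 Glycan array binding is given as a within-array Z-score, which can be read as non-binding when negative. The arrays, 3228 of them, came from the Consortium for Functional Glycomics database and were retained only where the protein sequence was available. Z-scores were averaged across arrays of the same protein sequence at different concentrations or buffers and across linkers.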
# [2] = target: Fuc(a1-2)[GalNAc(a1-3)]Gal(b1-3)GlcNAc(b1-6)GalNAc
# Summary of the method: as §1
# [3] = target: Fuc(a1-2)[GalNAc(a1-3)]Gal(b1-4)Glc
# Summary of the method: as §1
# [4] = target: Fuc(a1-2)[GalNAc(a1-3)]Gal(b1-4)GlcNAc
# Summary of the method: as §1
# [5] = target: Fuc(a1-2)[GalNAc(a1-3)]Gal(b1-4)GlcNAc(b1-2)Man
# Summary of the method: as §1
# [6] = target: Fuc(a1-2)[GalNAc(a1-3)]Gal(b1-4)GlcNAc(b1-2)Man(a1-3)[Fuc(a1-2)[GalNAc(a1-3)]Gal(b1-4)GlcNAc(b1-2)Man(a1-6)]Man(b1-4)GlcNAc(b1-4)GlcNAc
# Summary of the method: as §1
# [7] = target: Fuc(a1-2)[GalNAc(a1-3)]Gal(b1-4)GlcNAc(b1-2)Man(a1-3)[Fuc(a1-2)[GalNAc(a1-3)]Gal(b1-4)GlcNAc(b1-2)Man(a1-6)]Man(b1-4)GlcNAc(b1-4)[Fuc(a1-6)]GlcNAc
# Summary of the method: as §1
# [8] = target: Fuc(a1-2)[GalNAc(a1-3)]Gal(b1-4)GlcNAc(b1-3)Gal(b1-4)GlcNAc
# Summary of the method: as §1
# [9] = target: Fuc(a1-2)[GalNAc(a1-3)]Gal(b1-4)GlcNAc(b1-3)Gal(b1-4)GlcNAc(b1-3)Gal(b1-4)GlcNAc
# Summary of the method: as §1
# [10] = target: Fuc(a1-2)[GalNAc(a1-3)]Gal(b1-4)GlcNAc(b1-3)GalNAc
# Summary of the method: as §1
# [11] = target: Fuc(a1-2)[GalNAc(a1-3)]Gal(b1-4)GlcNAc(b1-3)[Fuc(a1-2)[GalNAc(a1-3)]Gal(b1-4)GlcNAc(b1-6)]GalNAc
# Summary of the method: as §1
# [12] = target: Fuc(a1-2)[GalNAc(a1-3)]Gal(b1-4)GlcNAc(b1-6)GalNAc
# Summary of the method: as §1
# [13] = target: Fuc(a1-2)[GalNAc(a1-3)]Gal(b1-4)[Fuc(a1-3)]GlcNAc
# Summary of the method: as §1
# [14] = target: Fuc(a1-2)[GalNAc(a1-3)]Gal(b1-4)[Fuc(a1-3)]GlcNAc(b1-3)GalNAc
# Summary of the method: as §1
# [15] = target: Fuc(a1-2)[GalNAc(a1-4)]Gal(b1-4)GlcNAc
# Summary of the method: as §1
# [16] = target: Fuc(a1-2)[GalNAc(b1-3)]Gal
# Summary of the method: as §1
# Fuc(a1-3)GlcNAc = target: Fuc(a1-3)GlcNAc
# Summary of the method: as §1
# [17] = target: Fuc(a1-3)[Gal(b1-4)]Glc6S
# Summary of the method: as §1
# [18] = target: Fuc(a1-3)[Gal(b1-4)]GlcNAc
# Summary of the method: as §1
# [19] = target: Fuc(a1-3)[Gal(b1-4)]GlcNAc(b1-2)Man
# Summary of the method: as §1
# [20] = target: Fuc(a1-3)[Gal(b1-4)]GlcNAc(b1-2)Man(a1-3)[Fuc(a1-3)[Gal(b1-4)]GlcNAc(b1-2)Man(a1-6)]Man(b1-4)GlcNAc(b1-4)GlcNAc
# Summary of the method: as §1
# [21] = target: Fuc(a1-3)[Gal(b1-4)]GlcNAc(b1-2)Man(a1-3)[Fuc(a1-3)[Gal(b1-4)]GlcNAc(b1-2)Man(a1-6)]Man(b1-4)GlcNAc(b1-4)[Fuc(a1-6)]GlcNAc
# Summary of the method: as §1
# [22] = target: Fuc(a1-3)[Gal(b1-4)]GlcNAc(b1-3)Gal(b1-3)[Fuc(a1-4)]GlcNAc
# Summary of the method: as §1
# [23] = target: Fuc(a1-3)[Gal(b1-4)]GlcNAc(b1-3)Gal(b1-4)[Fuc(a1-3)]GlcNAc
# Summary of the method: as §1
# [24] = target: Fuc(a1-3)[Gal(b1-4)]GlcNAc(b1-3)Gal(b1-4)[Fuc(a1-3)]GlcNAc(b1-3)Gal(b1-4)[Fuc(a1-3)]GlcNAc
# Summary of the method: as §1
# [25] = target: Fuc(a1-3)[Gal(b1-4)]GlcNAc(b1-3)GalNAc
# Summary of the method: as §1
# [26] = target: Fuc(a1-3)[Gal(b1-4)]GlcNAc(b1-6)GalNAc
# Summary of the method: as §1
# [27] = target: Fuc(a1-3)[Gal(b1-4)]GlcNAc(b1-6)[Gal(b1-3)GlcNAc(b1-3)]Gal(b1-4)Glc
# Summary of the method: as §1
# [28] = target: Fuc(a1-3)[Gal(b1-4)]GlcNAc6S
# Summary of the method: as §1
# [29] = target: Fuc(a1-3)[Gal3S(b1-4)]Glc
# Summary of the method: as §1
# [30] = target: Fuc(a1-3)[Gal3S(b1-4)]GlcNAc
# Summary of the method: as §1
# [31] = target: Fuc(a1-3)[Gal3S(b1-4)]GlcNAc6S
# Summary of the method: as §1
# [32] = target: Fuc(a1-3)[GalNAc(b1-4)]GlcNAc
# Summary of the method: as §1
# [33] = target: Fuc(a1-3)[GalNAc(b1-4)]GlcNAc6S
# Summary of the method: as §1
# Fuc(a1-4)GlcNAc = target: Fuc(a1-4)GlcNAc
# Summary of the method: as §1
# Fuc(b1-3)GlcNAc = target: Fuc(b1-3)GlcNAc
# Summary of the method: as §1
# Gal(a1-2)Gal = target: Gal(a1-2)Gal
# Summary of the method: as §1
# Gal(a1-3)Gal = target: Gal(a1-3)Gal
# Summary of the method: as §1
# Gal(a1-3)Gal(b1-3)GlcNAc = target: Gal(a1-3)Gal(b1-3)GlcNAc
# Summary of the method: as §1
# [34] = target: Gal(a1-3)Gal(b1-3)GlcNAc(b1-2)Man
# Summary of the method: as §1
# [35] = target: Gal(a1-3)Gal(b1-3)GlcNAc(b1-2)Man(a1-3)[Gal(a1-3)Gal(b1-3)GlcNAc(b1-2)Man(a1-6)]Man(b1-4)GlcNAc(b1-4)GlcNAc
# Summary of the method: as §1
# [36] = target: Gal(a1-3)Gal(b1-3)GlcNAc(b1-3)GalNAc
# Summary of the method: as §1
# [37] = target: Gal(a1-3)Gal(b1-3)GlcNAc(b1-6)GalNAc
# Summary of the method: as §1
# [38] = target: Gal(a1-3)Gal(b1-3)[Fuc(a1-4)]GlcNAc(b1-2)Man(a1-3)[Gal(a1-3)Gal(b1-3)[Fuc(a1-4)]GlcNAc(b1-2)Man(a1-6)]Man(b1-4)GlcNAc(b1-4)GlcNAc
# Summary of the method: as §1
# Gal(a1-3)Gal(b1-4)Glc = target: Gal(a1-3)Gal(b1-4)Glc
# Summary of the method: as §1
binder,measurement,setting,value
B1,glycan array binding signal (z-score),[1],-0.061
same,glycan array binding signal (z-score),[2],-0.092
same,glycan array binding signal (z-score),[3],-0.078
same,glycan array binding signal (z-score),[4],-0.076
same,glycan array binding signal (z-score),[5],-0.074
same,glycan array binding signal (z-score),[6],-0.056
same,glycan array binding signal (z-score),[7],-0.079
same,glycan array binding signal (z-score),[8],-0.066
same,glycan array binding signal (z-score),[9],-0.077
same,glycan array binding signal (z-score),[10],-0.077
same,glycan array binding signal (z-score),[11],-0.091
same,glycan array binding signal (z-score),[12],-0.071
same,glycan array binding signal (z-score),[13],-0.067
same,glycan array binding signal (z-score),[14],-0.083
same,glycan array binding signal (z-score),[15],-0.066
same,glycan array binding signal (z-score),[16],-0.123
same,glycan array binding signal (z-score),Fuc(a1-3)GlcNAc,-0.084
same,glycan array binding signal (z-score),[17],-0.094
same,glycan array binding signal (z-score),[18],-0.069
same,glycan array binding signal (z-score),[19],-0.081
same,glycan array binding signal (z-score),[20],-0.095
same,glycan array binding signal (z-score),[21],-0.059
same,glycan array binding signal (z-score),[22],-0.077
same,glycan array binding signal (z-score),[23],-0.059
same,glycan array binding signal (z-score),[24],-0.077
same,glycan array binding signal (z-score),[25],-0.091
same,glycan array binding signal (z-score),[26],-0.077
same,glycan array binding signal (z-score),[27],-0.072
same,glycan array binding signal (z-score),[28],-0.068
same,glycan array binding signal (z-score),[29],-0.074
same,glycan array binding signal (z-score),[30],-0.075
same,glycan array binding signal (z-score),[31],-0.077
same,glycan array binding signal (z-score),[32],-0.495
same,glycan array binding signal (z-score),[33],-0.069
same,glycan array binding signal (z-score),Fuc(a1-4)GlcNAc,-0.078
same,glycan array binding signal (z-score),Fuc(b1-3)GlcNAc,-0.085
same,glycan array binding signal (z-score),Gal(a1-2)Gal,-0.038
same,glycan array binding signal (z-score),Gal(a1-3)Gal,-0.086
same,glycan array binding signal (z-score),Gal(a1-3)Gal(b1-3)GlcNAc,-0.053
same,glycan array binding signal (z-score),[34],-0.065
same,glycan array binding signal (z-score),[35],-0.054
same,glycan array binding signal (z-score),[36],-0.078
same,glycan array binding signal (z-score),[37],-0.069
same,glycan array binding signal (z-score),[38],-0.048
same,glycan array binding signal (z-score),Gal(a1-3)Gal(b1-4)Glc,-0.068
